Measurements as given in paper PMC12040169 (PLOS Biology, 2025).
Where two headings read alike, the source gives them in different places. Some of the results follow.

System: T1, C. trachomatis L2/434/Bu expressing GFP (CTL2-GFP)
T1 construct: L2/434/Bu GFP intracellular growth in HeLa cells
Parameters: species or system HeLa; C. trachomatis total inclusion area by high-content imaging, normalised to DMSO
In short: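 After bulk GFP and resorufin fluorescence reads, cells were fixed, stained with Hoechst and imaged by high-content microscopy. Inclusion area and number (GFP) stood in for chlamydial growth, nuclei count (Hoechst) for host cell viability. MICs were derived as for the bulk readout.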

[1] = total inclusion area; 28.5 h, 10 µM; inhibitor

Row | Compound | % of control remaining [1] | % of control remaining (total inclusion area, 28.5 h, 10 µM, inhibitor)
1 | O=C(NCc1ccc(-c2csnn2)cc1)c1ccco1 [CBK149289] | 97.0169 | 
2 | COc1ccc(N(CC(=O)NC2CC3CCC2C3)S(=O)(=O)c2ccc(C)cc2)cc1 (centres unmarked) [CBK266574] | 106.605 | 
3 | O=C(NCc1cccs1)C1(Cc2ccccc2-c2ccc(F)c(F)c2)CCOCC1 [CBK286417] | 79.8837 | 
4 | O=c1c2c3nc4ccccc4nc3n(CCc3ccccc3)c2ncn1Cc1ccco1 [CBK269502] | 68.8332 | 
5 | COc1ccc(N2C(=O)c3ccc(C(=O)Nc4ccccc4C(=O)O)cc3C2=O)cc1O [CBK262833] | 101.863 | 
6 | Cc1cccc(NC(=O)NCCCn2c(-c3ccncc3)nc3cccnc32)c1 [CBK288580] | 103.75 | 
7 | Cc1ccc(O)c(CN[C@@H]2CCC[C@H]2Cc2cc(C)no2)c1 [CBK284936] | 128.516 | 
8 | Cc1c(C)n(Cc2ccccc2)c2ccc(C(=O)OCCCN(C)C)cc12 [CBK087693] | 78.4221 | 
9 | c1cnc2[nH]c(C3CCOCC3)c(CN3CCSCC3)c2c1 [CBK284688] | 68.2429 | 
10 | Oc1cc2cccnc2nc1-c1ccc2c(c1)CCO2 [CBK073698] | 85.3351 | 
11 | O=C(NCCn1nc(-c2cccs2)oc1=O)C1CCCCC1 [CBK282343] | 59.4042 | 
12 | CC(=O)N1CC[C@H]2NC(=O)CNC(=O)C3(CCCC[C@H]2C1)CCNCC3 [CBK292142] | 98.3055 | 
13 | O=C(c1ccc[nH]1)N1Cc2ccccc2C1 [CBK200319] | 113.845 | 
14 | O=C(O)CCN1CCC2(CCN(C(=O)c3cc(F)c(F)cc3F)C2)C1 (centres unmarked) [CBK137123] | 83.9206 | 
15 | CC1OCCC12CN(c1cc(CO)c(F)cn1)CCO2 (centres unmarked) [CBK304775] | 105.835 | 
16 | CC(=O)c1ccc(-c2nccnc2N[C@@H]2CCN(Cc3ccccc3)C2)s1 [CBK036981] | 61.0962 | 
17 | O=C(O)c1ccc(Cl)c(S(=O)(=O)Nc2ccc(I)cc2)c1 [CBK296132] | 82.9952 | 
18 | Cc1ncc(C(O)c2ccc(Cl)cc2)c2c1OC(C)(C)OC2 (centres unmarked) [CBK010749] | 80.7542 | 
19 | COc1ccc([N+](=O)[O-])cc1NC(=O)c1cc(-c2cccnc2)nc2ccc(C)cc12 [CBK267757] | 100.63 | 
20 | N#C/C(=C\C=C\c1ccc([N+](=O)[O-])cc1)c1nc(-c2cc3cc([N+](=O)[O-])ccc3oc2=O)cs1 [CBK262357] | 97.7494 | 
21 | Cc1nc2c(s1)C[C@@H]1[C@](C)(CO)[C@H](O)CC[C@@]1(C)[C@@H]2CC(=O)O [CBK289571] | 112.426 | 
22 | C=Cn1cc(CN2CCC(O)(c3ccccc3C)CC2)c(C)n1 [CBK282580] | 86.6728 | 
23 | FC(F)(F)Oc1ccc(-c2cc(NCCc3ccccn3)ncn2)cc1 [CBK037732] | 100.886 | 
24 | CCc1csc(CCNc2ccc(-c3nc(C4CC4)no3)cn2)n1 [CBK306608] | 82.119 | 
25 | O=C(Nc1ccc(OCc2ccccc2)cc1)c1cnc2n(c1=O)CCS2 [CBK287378] | 119.931 | 
26 | Cc1ccc(Nc2cc(-c3cccc4oc5ccccc5c34)ncn2)cc1NS(C)(=O)=O [CBK091150] | 82.5703 | 
27 | CCC(c1ccc(F)cc1F)N1CCN(Cc2nc(C)no2)CC1 (centres unmarked) [CBK304032] | 45.1187 | 

Row | Compound | % of control remaining [1] | % of control remaining (total inclusion area, 28.5 h, 10 µM, inhibitor)
28 | Cc1cc2ccccc2n2c(SCC(=O)Nc3nsc(-c4ccccc4)n3)nnc12 [CBK265673] | 105.492 | 
29 | Cc1ccnc(NC(=O)C2CCCN(C(=O)OC(C)(C)C)C2)c1 (centres unmarked) [CBK305875] | 24.8997 | 
30 | Cc1sc2nc(N)c(C(=O)NC(C)C)cc2c1C [CBK269259] | 120.163 | 
31 | COc1ccc(C(CC(=O)O)CC(=O)O)cc1OC [CBK263545] | 113.264 | 
32 | CNC(=O)CN1C(=O)CC2(C1=O)C(=O)N(C)c1ccc(OC)cc12 (centres unmarked) [CBK075190] | 102.902 | 
33 | Cc1ccnc(-n2sc3ccccc3c2=O)n1 [CBK116499] | 80.9932 | 
34 | COc1ccc(S(=O)(=O)NCC(=O)O)cc1OC [CBK034454] | 118.076 | 
35 | CCc1cccc(CN2CCC(CNC(=O)Nc3ccc(Cl)cc3)CC2)c1 [CBK269151] | 84.0376 | 
36 | Cc1cccc(C)c1NC(=O)CN1CCN(c2nccnc2OCC2COc3ccccc3O2)CC1 (centres unmarked) [CBK082801T] | 85.0571 | 
37 | CCC(NS(=O)(=O)c1ccc(OC)cc1)C(=O)O (centres unmarked) [CBK264509] | 116.92 | 
38 | Cc1cc(C(=O)NCc2ccc(C(=O)O)cc2)no1 [CBK268108] | 109.623 | 
39 | Cn1cc(C(=O)Nc2ccc3c(c2)CN(Cc2ccccc2)C3)cn1 [CBK281838] | 127.852 | 
40 | CC(CCCC(C)(C)O)NS(=O)(=O)c1ccc(-c2ccon2)s1 (centres unmarked) [CBK062466] | 87.0333 | 
41 | c1ccc(CCN2CCN(CC3COc4ccccc4O3)CC2)cc1 (centres unmarked) [CBK138342] | 90.9566 | 
42 | CCCCn1c(SCC(=O)c2cc(C)n(CCc3ccc(OC)cc3)c2C)n[nH]c1=O [CBK295351] | 113.953 | 
43 | COc1ccccc1NC(=O)C1CN(S(=O)(=O)c2ccccc2)CCN1S(=O)(=O)c1ccccc1 (centres unmarked) [CBK262673] | 99.6291 | 
44 | CCOC(=O)c1sc(-c2cccc(C)n2)nc1O [CBK081083] | 89.4749 | 
45 | O=C(c1nc2ccccn2c1CN1CCCC(O)C1)N1CCOCC1 (centres unmarked) [CBK307237] | 66.9993 | 
46 | Cc1cccc(NC(=O)c2ccccc2NS(=O)(=O)c2ccc(F)c(F)c2)c1 [CBK113810] | 98.4745 | 
47 | COCCn1c(=O)n(CC=C(C)C)c2cccnc21 [CBK283534] | 82.6242 | 
48 | Cc1ccccc1CNC(=O)CCSc1ccc(Cl)cc1 [CBK264040] | 119.55 | 
49 | O=C(Nc1ccccc1N1CCN(C(=O)c2ccccc2)CC1)c1cccnc1 [CBK269948] | 92.3141 | 
50 | COc1ccc(Cl)cc1N(CC(=O)Nc1ccccc1C(=O)O)S(C)(=O)=O [CBK264137] | 105.405 | 
51 | Cn1cncc1CN(CCc1ccccc1)Cc1ccncc1 [CBK282992] | 105.496 | 
52 | CCOC(=O)c1[nH]c2ccccc2c1NC(=O)c1ccc(Cl)cc1Br [CBK160140] | 91.6523 | 
53 | CC1=CC(C)C(C(=O)O)C(C(=O)N2CCN(C)CC2)C1 (centres unmarked) [CBK027311G] |  | 95.2068
54 | CC(=O)Nc1ccc(N2C(=O)CSC23C(=O)Nc2ccccc23)cc1 (centres unmarked) [CBK095916] | 104.658 | 

Row | Compound | % of control remaining [1] | % of control remaining (total inclusion area, 28.5 h, 10 µM, inhibitor)
55 | CCOC(=O)CSC1=NNC(C)(c2c(O)c3ccccc3n(CC)c2=O)N1 (centres unmarked) [CBK009370] | 104.946 | 
56 | CCCCC(c1cccnc1)N(C)C(=O)c1ccnc(-n2cnnc2)c1 (centres unmarked) [CBK306786] | 97.4372 | 
57 | CC(=O)c1cccc(NC(=O)Cn2nc(N3CCSCC3)ccc2=O)c1 [CBK307625] | 55.3447 | 
58 | Cn1ncc(N2CCC(CNC(=O)COc3cccc(F)c3)C2)cc1=O (centres unmarked) [CBK307692] | 48.0091 | 
59 | CN(C)CC(c1ccccc1)c1nnc2n1-c1ccc(S(C)(=O)=O)cc1C(c1ccccc1)=NC2 (centres unmarked) [CBK005856G] | 23.948 | 
60 | Cc1nn(CCCC(=O)O)c(C)c1I [CBK269796] | 77.7378 | 
61 | CCn1c(C)nc2cc(NC(=O)CC3CCCCO3)ccc21 (centres unmarked) [CBK281859] | 78.2534 | 
62 | COc1ccc(CNC(C)C2COc3ccccc3O2)c(OC)c1 (centres unmarked) [CBK074283G] | 82.2981 | 
63 | CCN(C#N)c1nc(NC)nc(OC)n1 [CBK265697] | 77.7111 | 
64 | CCC1CCCCN1C(=O)c1ccc(OC)c(OC)c1 (centres unmarked) [CBK084527] | 94.5198 | 
65 | CNC(=O)c1sc2ccccc2c1C1CCN(C(=O)Cc2coc3c(C)c(C)ccc23)C1 (centres unmarked) [CBK285876] | 107.214 | 
66 | Cc1nn(CC(C)C)c(C)c1CCC(=O)NCc1nnc2ccccn12 [CBK305719] | 66.0993 | 
67 | O=C(Nc1ccc(N2CCNCC2)c2ccccc12)c1ccccc1 [CBK028412T] | 81.3917 | 
68 | Cc1c(Cc2ccccc2)c(-n2ccnc2C)n2c(nc3ccccc32)c1C#N [CBK263144] | 99.8754 | 
69 | COc1cc(/C=C2\S/C(=N/c3ccc(S(N)(=O)=O)cc3)NC2=O)c(Br)cc1O [CBK265711] | 147.813 | 
70 | c1ccc(CN2CC[C@H](c3nnc(-c4cccnc4)o3)C2)cc1 [CBK289397] | 99.5646 | 
71 | COc1ccccc1NC(=O)C(C)N1C(=O)c2ccccc2C1=O (centres unmarked) [CBK261043] | 94.6948 | 
72 | COc1ccc(N2C(=O)CC(Nc3cc(C(=O)O)ccc3C)C2=O)c(OC)c1 (centres unmarked) [CBK296650] | 102.937 | 
73 | COc1cccc(CC(=O)N2CCC(Cc3cccc(-c4cccs4)c3)(C(N)=O)CC2)c1 [CBK285738] | 112.082 | 
74 | Cc1cc(C(C)(C)C)cc(C)c1S(=O)(=O)NCCSCCN [CBK013357] | 66.446 | 
75 | O=C(Nc1ccccc1C(=O)O)c1ccc(-c2ccc(Cl)cc2Cl)o1 [CBK078453] | 65.1523 | 
76 | Cn1ccnc1C1(O)CCN(C(=O)NCc2ccccc2)CC1 [CBK282276] | 87.4709 | 
77 | COc1cc(CNCc2cccnc2)cc(Cl)c1OCc1cccs1 [CBK270026C] | 75.7306 | 
78 | O=C1CCCC[C@]2(CN(Cc3ccccc3)C[C@H]2c2cccnc2)N1 [CBK283342] | 75.4917 | 
79 | CC(C)(CNC(=O)CN1CCOCC1)NC(=O)OC(C)(C)C [CBK089350] | 53.2145 | 
80 | O=C(Cn1ccnc1)NC(Cc1cccs1)c1nccs1 (centres unmarked) [CBK285092] | 103.869 | 
